Assay results reported in PubChem BioAssay (NCATS).
Inconclusive means that the source gave no clear call. Such entries were picked first, then a sample of the others. A potency beside an inconclusive call is a rough fit, not a confirmed value. “Side channel” marks fits to a control or component signal instead of the main read-out. Activity calls are given as the source filed them. The call rests on the fitted dose curve; in most records, active means well fitted activation curve with a large enough effect in the signal ratio, with a control signal flat (not every such curve was filed as active); inconclusive means small, poorly fitted or top-dose-only effect, or effect the other way, or a change in a side signal; inactive means flat fitted curve, though single readings scatter; the % refers to the signal ratio.

assay: qHTS Assay for Identification of Small Molecule Agonists for Hypoxia Response Element Signaling Pathway (AID 914); conditions: ME-180 (cervical carcinoma) HRE-bla reporter, beta-lactamase ratio, CoCl2, 17 h; activation: active compounds read high; on activation: top concentration of the series differs between compounds; % of control where 0% means no effect
Excerpt: NIH Molecular Libraries Screening Centers Network [MLSCN]
NIH Chemical Genomics Center [NCGC]
Hypoxia-inducible factor-1 (HIF-1) is the major hypoxia-regulated transcription factor that controls cellular responses to low oxygen concentration. HIF-1 is composed of two subunits: hypoxia responsive HIF-1 alpha and constitutively expressed HIF-1 beta, which is also known as aryl hydrocarbon receptor nuclear translocator. During hypoxic conditions, HIF-1 alpha heterodimerizes with HIF-1 beta and translocates into the nucleus where the HIF-1 complex binds to the hypoxia-response element (HRE) and activates expression of target genes such as VEGF (vascular endothelial growth factor). HIF-1 alpha protein levels are elevated in many solid tumors, including those of the cervix and brain. Within tumors, cells that are the greatest distance from blood vessels and therefore the most hypoxic express the highest levels of HIF-1 alpha. Therapeutic blockade of the HIF-1 signaling pathway in cancer cells therefore provides an attractive strategy for development of anticancer drugs.
Using a beta-lactamase reporter-gene under control of the hypoxia response element, a cell-based assay [CellSensor(TM) HRE-bla ME-180 developed by Invitrogen Corp.] was used to measure hypoxia-induced signaling. Library compounds were measured for their ability to positively modulate the action of EC50 CoCl2 on reporter gene activity. Compounds were screened in a titration series in 1536-well format. Positive modulators were identified based on the AC50 values derived from the screening data.
NCGC Assay Protocol Summary:
2500 cells/5uL in Opti-MEM medium containing 0.5% dialyzed FBS, 0.1 mM NEAA, 1 mM sodium pyruvate and 10 mM HEPES was dispensed into 1536-well plates and cells were cultured at 37 degrees Celsius overnight. Next day 23 nL of compounds or DMSO were delivered to each well using a pin tool, and 1uL of EC50 level of CoCl2, or EC100 level of CoCl2, or assay medium was added. And then the plates were incubated at 37 degrees Celsius for 17 hours. 1 uL of CCF4-dye mixture was added to each well. After incubated at room temperature for 2.5 hours the plates were measured on an EnVision plate reader at Excitation 405nm, Emission1=460nm and Emission 2=530nm. The %Activity was determined from the ratio of 460nm/530nm.
Potency means the concentration at half of the fitted maximal effect; tags describe the fitted curve by direction and shape or compound fluorescence and quenching.

Row | Structure (SMILES) | Potency | activation
1 | N#Cc1cccc(-c2nc3cnc(Oc4cccc(Cl)c4)nc3n(C3CC3)c2=O)c1 | inconclusive: 0.398 µM [inhibitor, full curve, poor fit] | –
2 | Cc1nc2cnc(Oc3cccc(Cl)c3)nc2n(Cc2ccc(F)cc2)c1=O | inconclusive: 5.01 µM [inhibitor, single point] | –
3 | O=C(c1ccncc1)N1CCC[C@@]2(CCN(c3cccc(-c4ccccc4)c3)C2)C1 | inconclusive: 3.16 µM [inhibitor, partial curve] | –
4 | O=C(c1ccncc1)N1CCC2(CCN(Cc3cc(C(F)(F)F)cc(C(F)(F)F)c3)CC2)CC1 | inconclusive: 3.98 µM [activator, single point] | –
5 | COc1ccc(-n2c(=O)c(-c3ccc(F)cc3)nc3cnc(N4CCNCC4)nc32)cc1 | – | inconclusive: 21.3%
6 | CC(=O)Nc1ccc(OC[C@@H](O)CNC(C)C)cc1 | – | inconclusive: -14.3%
7 | CN1CCN(c2ncc3nc(-c4ccccc4)c(=O)n(Cc4ccc(F)cc4)c3n2)CC1 | active: 3.16 µM | –
8 | Cc1noc(C)c1-c1nc(N(C)Cc2ccco2)c2ccccc2n1 | inconclusive: 5.01 µM [activator, single point] | –
9 | COCCn1c(=O)cnc2cnc(Oc3ccccc3)nc21 | – | inactive: 10.1%
10 | COc1ccc(NC(=O)N2CC[C@@]3(CCCN(C(=O)c4c(C)noc4C)C3)C2)cc1 | – | inactive: -0.633%
11 | O=c1c(-c2ccc(F)cc2)nc2cnc(Oc3cccc(Cl)c3)nc2n1C[C@H]1CCCO1 | inconclusive: 0.398 µM [inhibitor, full curve, poor fit] | –
12 | Cn1cccc1C(=O)N1CCC2(CCCN(c3cccc(-c4ccccc4)c3)C2)CC1 | inconclusive: 3.16 µM [inhibitor, single point] | –
13 | COc1ccccc1-c1cncnc1NCCN1CCOCC1 | active: 2.51 µM | –
14 | CCNc1ncc2nc(-c3cc(F)cc(F)c3)c(=O)n(C3CC3)c2n1 | – | inconclusive: 35.9%
15 | COCCn1c(=O)c(-c2ccccc2)nc2cnc(Nc3ccccc3)nc21 | inconclusive: 3.16 µM [activator, single point] | –
16 | COc1ccc(-n2c(=O)c(-c3cccs3)nc3cnc(N4CCOCC4)nc32)cc1 | inconclusive: 1 µM [activator, full curve, poor fit] | –
17 | Cn1cc(C(=O)OCC2CCN(CCNS(C)(=O)=O)CC2)c2ccccc21 | – | inactive: 26.2%
18 | COc1ccc2[nH]cc(CCNc3nc(-c4cccc(C#N)c4)nc4ccccc34)c2c1 | inconclusive: 3.16 µM [cytotoxic, side channel, single point] | –
19 | CC(C)(C)c1ccc(S(=O)(=O)/C=C\C#N)cc1 | inconclusive: 20 µM [cytotoxic, side channel, partial curve] | –
20 | CN1CCN(c2ncc3nc(-c4ccccc4)c(=O)n(-c4ccccc4)c3n2)CC1 | active: 3.16 µM | –

Row | Structure (SMILES) | Potency | activation
21 | CN(Cc1ccco1)c1ncnc2ccc(-c3ccccc3C(F)(F)F)cc12 | – | inconclusive: -29.4%
22 | COc1ccc(-c2nc3cnc(N4CCNCC4)nc3n(-c3ccc(OC)cc3)c2=O)cc1 | inconclusive: 3.16 µM [fluorescent, partial curve] | –
23 | CN1CCN(c2ncc3nc(-c4cc(F)cc(F)c4)c(=O)n(CCC#N)c3n2)CC1 | active: 3.16 µM | –
24 | NCCNS(=O)(=O)c1cccc2cnccc12 | inconclusive: 25.1 µM [activator, single point] | –
25 | CN1CCN(c2ncc3nc(-c4cccs4)c(=O)n(Cc4ccc(F)cc4)c3n2)CC1 | inconclusive: 3.16 µM [fluorescent, side channel, partial curve] | –
26 | O=C(c1cccc(F)c1)N1CCC2(CC1)CN(C(c1ccccc1)c1ccccc1)C2 | – | inconclusive: 34.4%
27 | COc1ccc(-c2nc3cnc(Oc4ccccc4)nc3n(Cc3cccs3)c2=O)cc1 | active: 2.51 µM | –
28 | COc1ccc(-c2nc3cnc(N4CCOCC4)nc3n(-c3ccccc3)c2=O)cc1 | – | inconclusive: 29.5%
29 | Cc1noc(C)c1-c1nc(N2CCNCC2)c2ccccc2n1 | inconclusive: 1.26 µM [activator, single point] | –
30 | COc1cccc(Cn2c(=O)c(-c3ccc(F)cc3)nc3cnc(N4CCNCC4)nc32)c1 | inconclusive: 3.98 µM [fluorescent, side channel, single point] | –
31 | COc1ccc2[nH]cc(CCNc3ncncc3-c3ccc4c(c3)OCO4)c2c1 | inconclusive: 3.16 µM [inhibitor, single point] | –
32 | CN(C)c1ncc2nc(CCc3ccccc3)c(=O)n(CCC#N)c2n1 | inconclusive: 1.58 µM [inhibitor, partial curve] | –
33 | COc1ccc(CNc2ncnc3ccc(-c4ccc(N(C)C)cc4)cc23)c(OC)c1 | inconclusive: 3.16 µM [inhibitor, partial curve] | –
34 | CCNc1ncc2nc(-c3cccs3)c(=O)n(-c3ccccc3)c2n1 | inconclusive: 3.16 µM [fluorescent, side channel, single point] | –
35 | N#CCCn1c(=O)c(CCc2ccccc2)nc2cnc(Oc3cccc(Cl)c3)nc21 | inconclusive: 3.98 µM [inhibitor, partial curve] | –
36 | COCCn1c(=O)c(-c2ccc(OC)cc2)nc2cnc(N3CCNCC3)nc21 | inconclusive: 3.98 µM [fluorescent, side channel, single point] | –
37 | COc1cccc(Nc2ncc3ncc(=O)n(Cc4ccc(F)cc4)c3n2)c1 | – | inactive: -20.2%
38 | O=C(c1cccc(F)c1)N1CCC[C@@]2(CCN(c3cccc(-c4ccccc4)c3)C2)C1 | inconclusive: 2.51 µM [inhibitor, single point] | –
39 | COc1ccc(CNc2nc(-c3ccc4c(c3)OCO4)nc3ccccc23)c(OC)c1 | – | inconclusive: 36.3%
40 | CN(C)C(=O)c1ccc(-c2nc(Nc3ccncc3)c3ccccc3n2)cc1 | – | inactive: -8.23%
